# According to the supplement of paper PMC8728848:
# Some of the results follow.
# Key:
# Experiment in all cases: glycan array binding signal (z-score within array); higher = stronger binding
# Conditions in all cases: glycan notation: IUPAC condensed, linker removed
# [1] = target: GlcNAc(a1-4)Gal(b1-4)GlcNAc(b1-3)Gal(b1-4)[Fuc(a1-3)]GlcNAc(b1-3)Gal(b1-4)[Fuc(a1-3)]GlcNAc
# How it was run: (§1)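 Glycan array data were curated from 3228 arrays in the Consortium for Functional Glycomics database and kept only where the protein sequence was available. Glycan names were converted to IUPAC-condensed notation, and columns mapping to the same glycan were averaged. The binding signal is a within-array Z-score, averaged across arrays of the same protein sequence at different concentrations or buffers and across linkers. Negative Z-scores can be read as non-binding.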
# [2] = target: GlcNAc(a1-6)Gal(b1-4)GlcNAc
# How it was run: as §1
# [3] = target: GlcNAc(b1-2)Gal(b1-3)GalNAc
# How it was run: as §1
# [4] = target: GlcNAc(b1-2)Man(a1-3)[GlcNAc(b1-2)Man(a1-6)]Man(b1-4)GlcNAc(b1-4)GlcNAc
# How it was run: as §1
# [5] = target: GlcNAc(b1-2)Man(a1-3)[GlcNAc(b1-2)Man(a1-6)]Man(b1-4)GlcNAc(b1-4)[Fuc(a1-6)]GlcNAc
# How it was run: as §1
# [6] = target: GlcNAc(b1-2)[GlcNAc(b1-4)]Man(a1-3)[GlcNAc(b1-2)Man(a1-6)]Man(b1-4)GlcNAc(b1-4)GlcNAc
# How it was run: as §1
# GlcNAc(b1-3)Gal = target: GlcNAc(b1-3)Gal
# How it was run: as §1
# [7] = target: GlcNAc(b1-3)Gal(b1-3)GalNAc
# How it was run: as §1
# GlcNAc(b1-3)Gal(b1-4)Glc = target: GlcNAc(b1-3)Gal(b1-4)Glc
# How it was run: as §1
# [8] = target: GlcNAc(b1-3)Gal(b1-4)GlcNAc
# How it was run: as §1
# [9] = target: GlcNAc(b1-3)Gal(b1-4)GlcNAc(b1-3)Gal(b1-4)GlcNAc
# How it was run: as §1
# GlcNAc(b1-3)GalNAc = target: GlcNAc(b1-3)GalNAc
# How it was run: as §1
# GlcNAc(b1-3)Man = target: GlcNAc(b1-3)Man
# How it was run: as §1
# [10] = target: GlcNAc(b1-3)[GlcNAc(b1-4)][GlcNAc(b1-6)]GlcNAc
# How it was run: as §1
# [11] = target: GlcNAc(b1-3)[GlcNAc(b1-6)]Gal(b1-4)GlcNAc
# How it was run: as §1
# [12] = target: GlcNAc(b1-3)[GlcNAc(b1-6)]GalNAc
# How it was run: as §1
# [13] = target: GlcNAc(b1-3)[GlcNAc(b1-6)]GlcNAc(b1-4)GlcNAc
# How it was run: as §1
# [14] = target: GlcNAc(b1-4)Gal(b1-4)GlcNAc
# How it was run: as §1
# GlcNAc(b1-4)GlcNAc = target: GlcNAc(b1-4)GlcNAc
# How it was run: as §1
# [15] = target: GlcNAc(b1-4)GlcNAc(b1-4)GlcNAc
# How it was run: as §1
# [16] = target: GlcNAc(b1-4)GlcNAc(b1-4)GlcNAc(b1-4)GlcNAc(b1-4)GlcNAc
# How it was run: as §1
# [17] = target: GlcNAc(b1-4)GlcNAc(b1-4)GlcNAc(b1-4)GlcNAc(b1-4)GlcNAc(b1-4)GlcNAc
# How it was run: as §1
# [18] = target: GlcNAc(b1-4)[GlcNAc(b1-6)]GalNAc
# How it was run: as §1
# [19] = target: GlcNAc(b1-6)Gal(b1-4)GlcNAc
# How it was run: as §1
# GlcNAc(b1-6)GalNAc = target: GlcNAc(b1-6)GalNAc
# How it was run: as §1
# GlcNAc3Prop(b1-4)GlcNAc = target: GlcNAc3Prop(b1-4)GlcNAc
# How it was run: as §1
# [20] = target: GlcNAc6S(b1-3)Gal(b1-4)GlcNAc
# How it was run: as §1
# Kdn(a2-3)Gal(b1-3)GalNAc = target: Kdn(a2-3)Gal(b1-3)GalNAc
# How it was run: as §1
# Kdn(a2-3)Gal(b1-3)GlcNAc = target: Kdn(a2-3)Gal(b1-3)GlcNAc
# How it was run: as §1
# Kdn(a2-3)Gal(b1-4)Glc = target: Kdn(a2-3)Gal(b1-4)Glc
# How it was run: as §1
# Kdn(a2-3)Gal(b1-4)GlcNAc = target: Kdn(a2-3)Gal(b1-4)GlcNAc
# How it was run: as §1
# [21] = target: Kdn(a2-3)Gal(b1-4)[Fuc(a1-3)]GlcNAc
# How it was run: as §1
# Kdn(a2-6)Gal(b1-4)GlcNAc = target: Kdn(a2-6)Gal(b1-4)GlcNAc
# How it was run: as §1
# [22] = target: Man(a1-2)Man(a1-2)Man(a1-3)Man
# How it was run: as §1
# [23] = target: Man(a1-2)Man(a1-2)Man(a1-6)[Man(a1-3)]Man
# How it was run: as §1
# Man(a1-2)Man(a1-3)Man = target: Man(a1-2)Man(a1-3)Man
# How it was run: as §1
# [24] = target: Man(a1-2)Man(a1-3)[Man(a1-2)Man(a1-6)]Man
# How it was run: as §1
# [25] = target: Man(a1-2)Man(a1-3)[Man(a1-2)Man(a1-6)]Man(a1-6)[Man(a1-2)Man(a1-2)Man(a1-3)]Man
# How it was run: as §1
binder,measurement,setting,value
"CLEC-1 (Homo sapiens), Q9NZH3 (protein) MQAKYSSTRDMLDDDGDTTMSLHSQASATTRHPEPRRTEHRAPSSTWRPVALTLLTLCLVLLIGLAAWGLLFFQYYQLSNTGQDTISQMEERLGNTSQELQSLQVQNIKLAGSLQHVAEKLCRELYNKAGAHRCSPCTEQWKWHGDNCYQFYKDSKSWEDCKYFCLSENSTMLKINKQEDLEFAASQSYSEFFYSYWTGLLRPDSGKAWLWMDGTPFTSELFHIIIDVTSPRSRDCVAILNGMIFSKDCKELKRCVCERRAGMVKPESLHVPPETLGEGD",glycan array binding signal (z-score),[1],0.6
same,glycan array binding signal (z-score),[2],2.11
same,glycan array binding signal (z-score),[3],-0.172
same,glycan array binding signal (z-score),[4],-0.064
same,glycan array binding signal (z-score),[5],0.135
same,glycan array binding signal (z-score),[6],-0.541
same,glycan array binding signal (z-score),GlcNAc(b1-3)Gal,-0.083
same,glycan array binding signal (z-score),[7],0.029
same,glycan array binding signal (z-score),GlcNAc(b1-3)Gal(b1-4)Glc,-0.094
same,glycan array binding signal (z-score),[8],-0.24
same,glycan array binding signal (z-score),[9],-0.455
same,glycan array binding signal (z-score),GlcNAc(b1-3)GalNAc,-0.285
same,glycan array binding signal (z-score),GlcNAc(b1-3)Man,-0.059
same,glycan array binding signal (z-score),[10],1.91
same,glycan array binding signal (z-score),[11],0.743
same,glycan array binding signal (z-score),[12],-0.462
same,glycan array binding signal (z-score),[13],-0.115
same,glycan array binding signal (z-score),[14],-0.016
same,glycan array binding signal (z-score),GlcNAc(b1-4)GlcNAc,-0.398
same,glycan array binding signal (z-score),[15],1.49
same,glycan array binding signal (z-score),[16],-0.341
same,glycan array binding signal (z-score),[17],-0.01
same,glycan array binding signal (z-score),[18],-0.424
same,glycan array binding signal (z-score),[19],0.492
same,glycan array binding signal (z-score),GlcNAc(b1-6)GalNAc,-0.226
same,glycan array binding signal (z-score),GlcNAc3Prop(b1-4)GlcNAc,-0.093
same,glycan array binding signal (z-score),[20],-0.134
same,glycan array binding signal (z-score),Kdn(a2-3)Gal(b1-3)GalNAc,-0.214
same,glycan array binding signal (z-score),Kdn(a2-3)Gal(b1-3)GlcNAc,-0.462
same,glycan array binding signal (z-score),Kdn(a2-3)Gal(b1-4)Glc,0.125
same,glycan array binding signal (z-score),Kdn(a2-3)Gal(b1-4)GlcNAc,0.004
same,glycan array binding signal (z-score),[21],0.006
same,glycan array binding signal (z-score),Kdn(a2-6)Gal(b1-4)GlcNAc,-0.53
same,glycan array binding signal (z-score),[22],-0.228
same,glycan array binding signal (z-score),[23],-0.399
same,glycan array binding signal (z-score),Man(a1-2)Man(a1-3)Man,-0.141
same,glycan array binding signal (z-score),[24],-0.143
same,glycan array binding signal (z-score),[25],-0.596
